B1: AC8scFv (scFv)
scFv: [sequence of about 100 residues omitted]GGSSRSSSSGGGGSGGGGQVQLVQSGAEVKKPGSSVKVSCKASGGSFSSYAINWVRQAPGQGLEWMGGLMPIFGTTNYAQKFQDRLTITADVSTSTAYMQLSGLTYEDTAMYYCARVAYMLEPTVTAGGLDVWGQGTTVTVSSASTKGGQAGQHHHHHHGAYPYDVPDYAS
B2: AC8scFvTAT2C (scFv)
scFv: [sequence of about 100 residues omitted]GGSSRSSSSGGGGSGGGGQVQLVQSGAEVKKPGSSVKVSCKASGGSFSSYAINWVRQAPGQGLEWMGGLMPIFGTTNYAQKFQDRLTITADVSTSTAYMQLSGLTYEDTAMYYCARVAYMLEPTVTAGGLDVWGQGTTVTVSSASTKGGQAGQHHHHHHGAYPYDVPDYASGGRKRRREKRRR
B3: AC8scFvTAT2A (scFv)
scFv: [sequence of about 100 residues omitted]GGSSRSSSSGGGGSGGGGQVQLVQSGAEVKKPGSSVKVSCKASGGSFSSYAINWVRQAPGQGLEWMGGLMPIFGTTNYAQKFQDRLTITADVSTSTAYMQLSGLTYEDTAMYYCARVAYMLEPTVTAGGLDVWGQGTTVTVSSASTKGGQAGQHHHHHHGAYPYDVPDYASGGKKRKKEKKKR
B4: AC8scFvTAT1A (scFv)
scFv: [sequence of about 100 residues omitted]GGSSRSSSSGGGGSGGGGQVQLVQSGAEVKKPGSSVKVSCKASGGSFSSYAINWVRQAPGQGLEWMGGLMPIFGTTNYAQKFQDRLTITADVSTSTAYMQLSGLTYEDTAMYYCARVAYMLEPTVTAGGLDVWGQGTTVTVSSASTKGGQAGQHHHHHHGAYPYDVPDYASGGRRKRRQRRRR
B5: AC8scFvTAT (scFv)
scFv: [sequence of about 100 residues omitted]GGSSRSSSSGGGGSGGGGQVQLVQSGAEVKKPGSSVKVSCKASGGSFSSYAINWVRQAPGQGLEWMGGLMPIFGTTNYAQKFQDRLTITADVSTSTAYMQLSGLTYEDTAMYYCARVAYMLEPTVTAGGLDVWGQGTTVTVSSASTKGGQAGQHHHHHHGAYPYDVPDYASRGRKKRRQRRR
B6: AC8scFvTAT1C (scFv)
scFv: [sequence of about 100 residues omitted]GGSSRSSSSGGGGSGGGGQVQLVQSGAEVKKPGSSVKVSCKASGGSFSSYAINWVRQAPGQGLEWMGGLMPIFGTTNYAQKFQDRLTITADVSTSTAYMQLSGLTYEDTAMYYCARVAYMLEPTVTAGGLDVWGQGTTVTVSSASTKGGQAGQHHHHHHGAYPYDVPDYASGGKRRKRQRRR
B7: AC8scFvTAT1B (scFv)
scFv: [sequence of about 100 residues omitted]GGSSRSSSSGGGGSGGGGQVQLVQSGAEVKKPGSSVKVSCKASGGSFSSYAINWVRQAPGQGLEWMGGLMPIFGTTNYAQKFQDRLTITADVSTSTAYMQLSGLTYEDTAMYYCARVAYMLEPTVTAGGLDVWGQGTTVTVSSASTKGGQAGQHHHHHHGAYPYDVPDYASGGRKKRKQKKR

molecular target: T1, glycoprotein D of Herpes simplex virus, on HSV-1 virus (Herpes simplex virus (HSV-1 virus in …)); assay: cell-based or functional assay

Binder	ED50; plaque reduction assay, HSV-1 neutralization in solution [µg/mL]	ED50 against HSV-1 infection; virus prevention assay (cells pre-treated with antibody, washed, then HSV-1) [µg/mL]
B1	~0.2	–
B2	~0.2	25
B3	~0.2	3

molecular target: T1, glycoprotein D of Herpes simplex virus, …; assay: cell-based or functional assay; remark: another data set of the same source

Binder	Plaque Reduction Rate Percentage (Average plaque number per plate) at 0.012 µg/ml; HSV-1 neutralization in solution [%]	Plaque Reduction Rate Percentage (Average plaque number per plate) at 0.037 µg/ml; HSV-1 neutralization in solution [%]	Plaque Reduction Rate Percentage (Average plaque number per plate) at 0.11 µg/ml; HSV-1 neutralization in solution [%]	Plaque Reduction Rate Percentage (Average plaque number per plate) at 0.33 µg/ml; HSV-1 neutralization in solution [%]	Plaque Reduction Rate Percentage (Average plaque number per plate) at 1 µg/ml; HSV-1 neutralization in solution [%]	Plaque Reduction Rate Percentage (Average plaque number per plate) at 3 µg/ml; HSV-1 neutralization in solution [%]
B4	2	14	57	96	100	100
B5	0	10	57	98	99	98
B6	0	1	42	100	100	100
B7	2	9	40	98	100	100

molecular target: T1, glycoprotein D of Herpes simplex virus, …; assay: cell-based or functional assay; remark: another data set of the same source

Binder	Plaque Reduction Rate Percentage (Average plaque number per plate) at 0.008 µg/ml; HSV-1 neutralization in solution [%]	Plaque Reduction Rate Percentage (Average plaque number per plate) at 0.04 µg/ml; HSV-1 neutralization in solution [%]	Plaque Reduction Rate Percentage (Average plaque number per plate) at 0.2 µg/ml; HSV-1 neutralization in solution [%]	Plaque Reduction Rate Percentage (Average plaque number per plate) at 1 µg/ml; HSV-1 neutralization in solution [%]	Plaque Reduction Rate Percentage (Average plaque number per plate) at 5 µg/ml; HSV-1 neutralization in solution [%]
B2	1	1	44	99	99
B3	0	1	36	97	98
B5	0	22	47	99	97

molecular target: T1, glycoprotein D of Herpes simplex virus, …; assay: cell-based or functional assay; remark: another data set of the same source

Binder	Plaque Reduction Rate Percentage (Average plaque number per plate) at 0.2 µg/ml; virus prevention assay (cells pre-treated with antibody, washed, then HSV-1) [%]	Plaque Reduction Rate Percentage (Average plaque number per plate) at 0.6 µg/ml; virus prevention assay (cells pre-treated with antibody, washed, then HSV-1) [%]	Plaque Reduction Rate Percentage (Average plaque number per plate) at 1.9 µg/ml; virus prevention assay (cells pre-treated with antibody, washed, then HSV-1) [%]	Plaque Reduction Rate Percentage (Average plaque number per plate) at 5.6 µg/ml; virus prevention assay (cells pre-treated with antibody, washed, then HSV-1) [%]	Plaque Reduction Rate Percentage (Average plaque number per plate) at 16.7 µg/ml; virus prevention assay (cells pre-treated with antibody, washed, then HSV-1) [%]	Plaque Reduction Rate Percentage (Average plaque number per plate) at 50 µg/ml; virus prevention assay (cells pre-treated with antibody, washed, then HSV-1) [%]
B4	0	0	4	44	89	98
B5	0	0	0	19	74	98
B6	0	0	0	6	60	90
B7	0	0	0	16	80	100

molecular target: T1, glycoprotein D of Herpes simplex virus, …; assay: cell-based or functional assay; remark: another data set of the same source

Binder	Plaque Reduction Rate Percentage (Average plaque number per plate) at 0.2 µg/ml; virus prevention assay (cells pre-treated with antibody, washed, then HSV-1) [%]	Plaque Reduction Rate Percentage (Average plaque number per plate) at 0.6 µg/ml; virus prevention assay (cells pre-treated with antibody, washed, then HSV-1) [%]	Plaque Reduction Rate Percentage (Average plaque number per plate) at 1.9 µg/ml; virus prevention assay (cells pre-treated with antibody, washed, then HSV-1) [%]	Plaque Reduction Rate Percentage (Average plaque number per plate) at 5.6 µg/ml; virus prevention assay (cells pre-treated with antibody, washed, then HSV-1) [%]	Plaque Reduction Rate Percentage (Average plaque number per plate) at 16.7 µg/ml; virus prevention assay (cells pre-treated with antibody, washed, then HSV-1) [%]	Plaque Reduction Rate Percentage (Average plaque number per plate) at 50 µg/ml; virus prevention assay (cells pre-treated with antibody, washed, then HSV-1) [%]
B2	0	0	5	21	36	76
B3	4	9	37	69	95	98
B5	0	0	20	41	91	97

— patent US20110033389A1 (published 2011)
